T1: BCMW37 (recombinant human BCMA antigen) (human, UniProt Q02223 1-54, limits assumed)
T1 construct: also called BCMA BCMW37 chain; human BCMA (SPR antigen)
T1 sequence (looked up): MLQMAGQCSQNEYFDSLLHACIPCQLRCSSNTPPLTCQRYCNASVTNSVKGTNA

B1: BGCB491 (other)
heavy: QVQLQQSGPRLVRPSQTLSLTCAISGDSVFNNNAAWSWIRQSPSRGLEWLGRTYYRSKWLYDYAVSVKSRITVNPDTSRNQFTLQLNSVTPEDTALYYCARGYSSSFDYWGQGTLVTVSSASTKGPSVFPLAPSSKSTSGGTAALGCLVKDYFPEPVTVSWNSGALTSGVHTFPAVLQSSGLYSLSSVVTVPSSSLGTQTYICNVNHKPSNTKVDKKVEPKSCDKTHTCPPCPAPEAAGGPSVFLFPPKPKDTLMISRTPEVTCVVVSVSHEDPEVKFNWYVDGVEVHNAKTKPREEQYNSTYRVVSVLTVLHQDWLNGKEYKCKVSNKALPAPIEKTISKAKGQPREPQVYTLPPSREEMTKNQVSLSCAVKGFYPSDIAVEWESNGQPENNYKTTPPVLDSDGSFFLVSKLTVDKSRWQQGNVFSCSVMHEALHNRFTQKSLSLSPGKGGGGSGGGGSGGGGSGGGGS[letters of about 100 residues not shown]QFPHTFGQGTKLEIKGGSEGKSSGSGSESKSTGGSQVTLKESGPVLVKPTETLTLTCTVSGFSLTNIRMSVSWIRQPPGKALEWLAHIFSNDEKSYSTSLKSRLTISRDTSKSQVVLTLTNVDPVDTATYYCARMRLPYGMDVWGQGTTVTVSS
light: QSALTQPASVSGSPGQSITISCTGTSSNIGTYKFVSWYQQHPDKAPKVLLYEVSKRPSGVSSRFSGSKSGNTASLTISGLQAEDQADYHCVSYAGSGTLLFGGGTKLTVLGQPKAAPSVTLFPPSSEELQANKATLVCLISDFYPGAVTVAWKADSSPVKAGVETTTPSKQSNNKYAASSYLSLTPEQWKSHRSYSCQVTHEGSTVEKTVAPTECS
chain: EIVLTQSPGTLSLSPGERATLSCRASQSISSSFLTWYQQKPGQAPRLLIYGASSRATGIPDRFSGGGSGTDFTLTISRLEPEDFAVYYCQHYGSSPMYTFGQGTKLEIKGGSEGKSSGSGSESKSTGGS[letters of about 100 residues not shown]DEGYSSGHYYGMDVWGQGTTVTVSSEPKSSDKTHTCPPCPAPEAAGGPSVFLFPPKPKDTLMISRTPEVTCVVVSVSHEDPEVKFNWYVDGVEVHNAKTKPREEQYNSTYRVVSVLTVLHQDWLNGKEYKCKVSNKALPAPIEKTISKAKGQPREPQVYTLPPSREEMTKNQVSLWCLVKGFYPSDIAVEWESNGQPENNYKTTPPVLDSDGSFFLYSKLTVDKSRWQQGNVFSCSVMHEALHNHYTQKSLSLSPGK
notes: Trispecific IgG1 antibody (L234A, L235A, D265S); Heavy chain 1 = anti-CD3 (CD3B376) Fab heavy chain, hole and RF mutations, with C-terminal anti-GPRC5D scFv (GC5B680); Heavy chain 2 = anti-BCMA scFv (BCMB519) - Fc knob; also called JNJ-79635322; BCMA×GPRC5D×CD3 trispecific mAb
B2: BGCB463 (other)
heavy: QVQLQQSGPRLVRPSQTLSLTCAISGDSVFNNNAAWSWIRQSPSRGLEWLGRTYYRSKWLYDYAVSVKSRITVNPDTSRNQFTLQLNSVTPEDTALYYCARGYSSSFDYWGQGTLVTVSSASTKGPSVFPLAPSSKSTSGGTAALGCLVKDYFPEPVTVSWNSGALTSGVHTFPAVLQSSGLYSLSSVVTVPSSSLGTQTYICNVNHKPSNTKVDKKVEPKSCDKTHTCPPCPAPEAAGGPSVFLFPPKPKDTLMISRTPEVTCVVVSVSHEDPEVKFNWYVDGVEVHNAKTKPREEQYNSTYRVVSVLTVLHQDWLNGKEYKCKVSNKALPAPIEKTISKAKGQPREPQVYTLPPSREEMTKNQVSLSCAVKGFYPSDIAVEWESNGQPENNYKTTPPVLDSDGSFFLVSKLTVDKSRWQQGNVFSCSVMHEALHNRFTQKSLSLSPGK
light: QSALTQPASVSGSPGQSITISCTGTSSNIGTYKFVSWYQQHPDKAPKVLLYEVSKRPSGVSSRFSGSKSGNTASLTISGLQAEDQADYHCVSYAGSGTLLFGGGTKLTVLGQPKAAPSVTLFPPSSEELQANKATLVCLISDFYPGAVTVAWKADSSPVKAGVETTTPSKQSNNKYAASSYLSLTPEQWKSHRSYSCQVTHEGSTVEKTVAPTECS
chain: [letters of about 100 residues not shown]QFPHTFGQGTKLEIKGGSEGKSSGSGSESKSTGGSQVTLKESGPVLVKPTETLTLTCTVSGFSLTNIRMSVSWIRQPPGKALEWLAHIFSNDEKSYSTSLKSRLTISRDTSKSQVVLTLTNVDPVDTATYYCARMRLPYGMDVWGQGTTVTVSSEPKSSDKTHTCPPCPAPEAAGGPSVFLFPPKPKDTLMISRTPEVTCVVVSVSHEDPEVKFNWYVDGVEVHNAKTKPREEQYNSTYRVVSVLTVLHQDWLNGKEYKCKVSNKALPAPIEKTISKAKGQPREPQVYTLPPSREEMTKNQVSLWCLVKGFYPSDIAVEWESNGQPENNYKTTPPVLDSDGSFFLYSKLTVDKSRWQQGNVFSCSVMHEALHNHYTQKSLSLSPGKGGSEGKSSGSGSESKSTGGSEIVLTQSPGTLSLSPGERATLSCRASQSISSSFLTWYQQKPGQAPRLLIYGASSRATGIPDRFSGGGSGTDFTLTISRLEPEDFAVYYCQHYGSSPMYTFGQGTKLEIKGGSEGKSSGSGSESKSTGGS[letters of about 100 residues not shown]DEGYSSGHYYGMDVWGQGTTVTVSS
notes: Trispecific IgG1 antibody (L234A, L235A, D265S); Heavy chain 1 = anti-CD3 (CD3B376) Fab heavy chain with hole and RF mutations; also called BGCB463.003; BGCB463.004

Assays:
[1] = biological target: T1, BCMW37 (recombinant human BCMA antigen); test: SPR; antigen BCMW37
[2] = biological target: T2, CD3W200, recombinant CD3εγ heterodimer construct (human, UniProt P07766 22-118; P09693 23-103); test: SPR, CD3 binding after chemical oxidation
T2 construct: also called human CD3 (SPR antigen for BGCB491)

[3] = biological target: T1, BCMW37 (recombinant human BCMA antigen); test: SPR, BCMA binding after chemical oxidation
[4] = biological target: T1, BCMW37 (recombinant human BCMA antigen); test: SPR, BCMA binding after oxidation with metal
[5] = biological target: T3, human GPRC5D (G-protein coupled receptor family C group 5 member D) on cells (human, UniProt Q9NZD1 1-345); test: flow cytometry, H929 BCMA KO cells, 1 h 37C; Run 3
T3 construct: Target on H929 or MM.1R BCMA knockout cells, K562 cells expressing human GPRC5D and HEK293 cells of the cell microarray
T3 sequence (Q9NZD1 whole entry): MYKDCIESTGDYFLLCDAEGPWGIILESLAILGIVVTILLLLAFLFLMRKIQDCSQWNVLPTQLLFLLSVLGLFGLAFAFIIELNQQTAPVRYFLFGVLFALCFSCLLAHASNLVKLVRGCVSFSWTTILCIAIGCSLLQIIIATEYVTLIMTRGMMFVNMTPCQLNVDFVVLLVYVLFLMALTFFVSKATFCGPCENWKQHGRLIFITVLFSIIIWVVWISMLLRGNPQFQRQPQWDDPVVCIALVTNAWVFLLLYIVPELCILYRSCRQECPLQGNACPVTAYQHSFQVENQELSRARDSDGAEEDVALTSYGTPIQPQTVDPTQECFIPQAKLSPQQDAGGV
Protocol: First, FACS-based binding for GPRC5D and BCMA binding arms of the trispecific molecule was determined by measuring the effective concentration (EC) range from a dose-response curve using a 4-parameter fit at 37° C. for 1 hr. This was assessed using an H929 suite of cells (WT, GPRC5D-KO, BCMA-KO, and GPRC5D/BCMA KO), and a similar MM.1R suite. Cell based EC₅₀ is approximately 13 nM for WT H929 (FIGS. 2A-2D, Table 7) and 2.4 nM for WT MM.1R (FIGS. 3A-3D, Table 8). A clear avidity affect is observed as EC₅₀ and Bmax are both reduced in GPRC5D-KO and BCMA-KO lines which test monovalent binding of target binding arms (Table 7). Next, cell-based EC₅₀ was determined for the CD3-binding Fab arm using purified Pan T cells from three random donors. […] Next, dose responsive binding was assessed at 4° C. to remove any potential biological effects. As shown in FIGS. 5A-5C, binding is stronger (50-100 nM) at 4° C., compared to 37° C., which may indicate internalization. Additionally, two expression lots of BGCB463 (BGCB463.003 from transient transfection and BGCB463.004 from a stable transfection pool), were directly compared with binding to H929, MM.1R, and Pan T cells and no differences were noted (FIGS. 6A-6C).

[6] = biological target: T3, human GPRC5D (G-protein coupled …); test: flow cytometry, MM.1R BCMA KO cells, 1 h 37C; Run 3
[7] = biological target: T3, human GPRC5D (G-protein coupled …); test: flow cytometry, K562 cells expressing human GPRC5D, 1 h 37C
[8] = biological target: T4, human CD3 (CD3ε of the TCR/CD3 complex) on primary human pan T cells (human, UniProt P07766); test: flow cytometry, human pan T cells, Donor 1, 1 h 37C; average of runs
T4 construct: whole, on cells; On T cells CD3ε stands in the whole TCR/CD3 complex
Protocol: (§1) For binding of BGCB463 to human and cynomolgus Pan T cells, three human donors (Hemacare) were selected, quickly thawed, resuspended, and aliquoted into a 96-well plate at 1×10⁶ cells/mL. Cells were then washed, Fc blocked if necessary (Innovex), and stained with viability dye (Invitrogen). BGCB463 and its corresponding isotype (B23B251) were diluted in complete media to an initial concentration of 2 μM and 1:3 serial dilutions in duplicate were performed for a dose-response curve. The cells were incubated with molecules at 4° C. or 37° C. for 1 hour. When necessary, incubation with 90% human serum (Sigma) was also performed as described above.
(§2) First, FACS-based binding for GPRC5D and BCMA binding arms of the trispecific molecule was determined by measuring the effective concentration (EC) range from a dose-response curve using a 4-parameter fit at 37° C. for 1 hr. This was assessed using an H929 suite of cells (WT, GPRC5D-KO, BCMA-KO, and GPRC5D/BCMA KO), and a similar MM.1R suite. Cell based EC₅₀ is approximately 13 nM for WT H929 (FIGS. 2A-2D, Table 7) and 2.4 nM for WT MM.1R (FIGS. 3A-3D, Table 8). […] Next, cell-based EC₅₀ was determined for the CD3-binding Fab arm using purified Pan T cells from three random donors. […] Next, dose responsive binding was assessed at 4° C. to remove any potential biological effects. […]

[9] = biological target: T4, human CD3 (CD3ε of the TCR/CD3 complex) …; test: flow cytometry, human pan T cells, 1 h 37C; total average of three donors
Protocol: as §1, §2

[10] = biological target: T5, cynomolgus GPRC5D on K562 cells (cynomolgus monkey); test: flow cytometry, K562 cells expressing cynomolgus against human GPRC5D, 1 h 37C
T5 construct: whole, on cells; also called cyno GPRC5D
Protocol: (§3) FIGS. 9A-E. BGCB463 (circles) or negative control B23B251 (triangles) were all incubated with K562 cells expressing human GPRC5D (FIG. 9A), human BCMA (FIG. 9B), cynomolgus GPRC5D (FIG. 9C) or cynomolgus BCMA (FIG. 9D) for 1 hr at 37° C. at a starting concentration of 2 μM. After secondary detection with AF647-anti-human IgG, the MFI signal was analyzed to generate an EC₅₀ and EC₉₀ (FIG. 9E). Data are representative of two independent experiments.
(§4) The GPRC5D (i.e., GC5B680) and BCMA binding arms were assessed for cross-reactivity to cynomolgus monkey as part of the BGCB463 molecule, which uses the identical binding arms as BGCB491. Cross reactivity to cynomolgus monkeys was profiled for both target-binding scFv arms using FACS-based cell binding at 37° C. for 1 hour with K562 stably expressing human or cynomolgus monkey GPRC5D or BCMA. The cell-based EC₅₀ value for the GC5B680 scFv arm was approximately 30 nM against human GPRC5D-expressing cells and about 10-fold weaker (approximately 400 nM) on cynomolgus monkey GPRC5D-expressing cells.

[11] = biological target: T3, human GPRC5D (G-protein coupled …); test: flow cytometry on K562 cells expressing human GPRC5D, 1 hr 37 C, Run 1
Protocol: as §3

[12] = biological target: T5, cynomolgus GPRC5D on K562 cells; test: flow cytometry on K562 cells expressing cynomolgus GPRC5D, 1 hr 37 C, Run 1
Protocol: as §3, §4

[13] = biological target: T4, human CD3 (CD3ε of the TCR/CD3 complex) …; test: flow cytometry on Pan T cells, donor D326589, 1 hr at 4 C, AF647 secondary detection
Protocol: as §1, §2

[14] = biological target: T3, human GPRC5D (G-protein coupled …); test: flow cytometry on K562 cells expressing human GPRC5D, 1 hr 37 C, average of Runs 1 and 2 (EC50 AVE)
Protocol: as §3, §4

Binder | Kd [1] [nM] | Kd [2] [nM] | Kd [3] [nM] | Kd [4] [nM] | EC50 [5] [nM] | EC50 [6] [nM] | EC50 [7] [nM] | EC50 [8] [nM] | EC50 [9] [nM] | fold weaker than on human GPRC5D [10] [fold] | EC50 [11] [nM] | EC50 [12] [nM] | EC50 (read off the curve) [13] [nM] | EC50 [14] [nM]
B1 | 0.21 | 22.7 | 0.537 | 0.215 |  |  |  |  |  |  |  |  |  | 
B2 |  |  |  |  | 65.2 | 35.3 | ~30 | 344 | 329 | ~10 | 12.5 | 435 | ~30 | 31.1

Source: patent publication US20220267438A1 (Janssen / Centocor, published 2022)
